The results in this text go back to the supplement of paper PMC4967469.

A lower IC50 marks a more sensitive line; a fit beyond the top or the lowest dose is shown as a bound at that dose. AUC, from the same fit, is the share of area under the viability curve across the 256-fold dose range; values near 1 show little effect. An inferred top dose was derived from the fitted curves, not read from the paper.

Compound in this experiment: Cc1ccc(-c2c(C(=O)CF)n(CCCO)c3ncnc(N)c23)cc1 [FMK]
Briefly: Viability of human cancer cell lines after 72 h of drug (GDSC screen). Particulars: top dose inferred. The procedure: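 Human cancer cell lines in 384-well plates, medium with 10% serum, drug for 72 h over a 256-fold dose range (nine 2-fold or five 4-fold steps up to the top dose). Adherent lines were fixed and stained with the nucleic acid dye Syto60, suspension lines read with resazurin; signal relative to control wells, capped at 0 and 100%. One two-parameter sigmoid per drug and line, fitted in a mixed model over all curves with the slope shared within a line.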
Broadly, the IC50 is the midpoint of a concentration-inhibition curve. For the cell line “SK-N-AS (neuroblastoma, adherent, top dose 20 µM)”, the AUC was determined as 0.958 and the half-inhibitory concentration (IC50) is above 20 µM.

Regarding “SK-N-DZ (neuroblastoma, adherent, top dose 20 µM)”, the AUC was 0.982 and the IC50 is above 20 µM.

Take “SK-N-SH (neuroblastoma, adherent, top dose 20 µM)”: the AUC came out at 0.983 and the IC50 was above 20 µM.

For the cell line “SK-OV-3 (ovary, adherent, top dose 20 µM)”, the AUC turned out to be 0.935 and the IC50 is above 20 µM.

In the case of “SK-PN-DW (Ewing sarcoma, adherent, top dose 20 µM)”, the AUC came to 0.983 and the IC50 is above 20 µM.

Consider “SK-UT-1 (soft tissue, adherent, top dose 20 µM)”, for which the AUC worked out at 0.988 and the IC50 was above 20 µM.

With “SKG-IIIa (cervix, adherent, top dose 20 µM)”, the AUC was determined as 0.983 and the IC50 is above 20 µM.

Turning to “SKN (uterus, adherent, top dose 10.24 µM)”, the AUC came out at 0.958 and the IC50 is above 10.2 µM.

With “SLVL (B-cell lymphoma, suspension, top dose 20 µM)”, the AUC came out at 0.938 and the IC50 was above 20 µM.

For the cell line “SN12C (kidney, adherent, top dose 20 µM)”, the AUC was 0.986 and the IC50 was above 20 µM.

On to “SNB75 (glioma, adherent, top dose 20 µM)”, for which the AUC came to 0.968 and the IC50 is above 20 µM.

“SNG-M (endometrium, adherent, top dose 20 µM)”: the AUC stood at 0.739 and the half-inhibitory concentration (IC50) came out at 5.94 µM.

As to “SNU-182 (liver, adherent, top dose 10.24 µM)”, the AUC amounted to 0.96 and the IC50 is above 10.2 µM.

On to “SNU-387 (liver, adherent, top dose 20 µM)”, for which the AUC worked out at 0.979 and the IC50 is above 20 µM.

On to “SNU-398 (liver, adherent, top dose 20 µM)”, for which the AUC came to 0.965 and the IC50 was above 20 µM.

Consider “SNU-423 (liver, adherent, top dose 20 µM)”, for which the AUC was 0.948 and the half-inhibitory concentration (IC50) is above 20 µM.

For the cell line “SNU-449 (liver, adherent, top dose 20 µM)”, the AUC was found to be 0.975 and the IC50 was above 20 µM.

“SNU-475 (liver, adherent, top dose 20 µM)”: the AUC was determined as 0.98 and the IC50 is above 20 µM.

Turning to “SNU-C1 (large intestine, suspension, top dose 20 µM)”, the AUC worked out at 0.964 and the IC50 is above 20 µM.

“SNU-C2B (large intestine, adherent, top dose 20 µM)”: the AUC is 0.95 and the IC50 is above 20 µM.

On to “SR (lymphoid neoplasm, suspension, top dose 20 µM)”, for which the AUC is 0.975 and the IC50 is above 20 µM.

In the case of “ST486 (Burkitt lymphoma, suspension, top dose 20 µM)”, the AUC was 0.936 and the IC50 was above 20 µM.

“STS-0421 (soft tissue, adherent, top dose 20 µM)”: the AUC is 0.894 and the 50% inhibitory concentration (IC50) is above 20 µM.

For the cell line “SU8686 (pancreas, adherent, top dose 20 µM)”, the AUC was found to be 0.975 and the half-maximal inhibitory concentration (IC50) is above 20 µM.

As for “SU-DHL-1 (anaplastic large cell lymphoma, suspension, top dose 20 µM)”, the AUC was determined as 0.992 and the IC50 was above 20 µM.

“SU-DHL-4 (B-cell lymphoma, suspension, top dose 20 µM)”: the AUC is 0.997 and the IC50 is above 20 µM.

For the cell line “SU-DHL-5 (B-cell lymphoma, suspension, top dose 20 µM)”, the AUC was 0.987 and the IC50 is above 20 µM.

In the case of “SU-DHL-6 (B-cell lymphoma, suspension, top dose 20 µM)”, the AUC was 0.963 and the IC50 is above 20 µM.

“SU-DHL-8 (B-cell lymphoma, suspension, top dose 20 µM)”: the AUC turned out to be 0.962 and the concentration for half-maximal inhibition (IC50) is above 20 µM.

On to “SU-DHL-10 (B-cell lymphoma, suspension, top dose 20 µM)”, for which the AUC was 0.997 and the IC50 is above 20 µM.

Regarding “SU-DHL-16 (B-cell lymphoma, suspension, top dose 20 µM)”, the AUC came out at 0.996 and the IC50 is above 20 µM.

Consider “SUIT-2 (pancreas, adherent, top dose 20 µM)”, for which the AUC is 0.912 and the IC50 was above 20 µM.

Turning to “SUP-B15 (lymphoblastic leukaemia, suspension, top dose 20 µM)”, the AUC came to 0.935 and the IC50 is above 20 µM.

As to “SUP-HD1 (Hodgkin lymphoma, suspension, top dose 20 µM)”, the AUC is 0.986 and the IC50 is above 20 µM.

Turning to “SUP-M2 (anaplastic large cell lymphoma, suspension, top dose 20 µM)”, the AUC is 0.972 and the IC50 was above 20 µM.

Take “SUP-T1 (T-cell lymphoblastic leukaemia, suspension, top dose 20 µM)”: the AUC is 0.935 and the IC50 is above 20 µM.

In the case of “SW13 (adrenal gland, adherent, top dose 20 µM)”, the AUC turned out to be 0.988 and the IC50 was above 20 µM.

Regarding “SW48 (large intestine, adherent, top dose 20 µM)”, the AUC worked out at 0.984 and the concentration for half-maximal inhibition (IC50) was above 20 µM.

For “SW156 (kidney, adherent, top dose 20 µM)”, the AUC amounted to 0.981 and the half-maximal inhibitory concentration (IC50) is above 20 µM.

Consider “SW620 (large intestine, adherent, top dose 20 µM)”, for which the AUC amounted to 0.974 and the IC50 was above 20 µM.

As to SW626 (ovary, adherent, top dose 20 µM), the AUC was found to be 0.938 and the IC50 was above 20 µM.

On to “SW780 (bladder, adherent, top dose 20 µM)”, for which the AUC amounted to 0.976 and the IC50 is above 20 µM.

Take “SW837 (large intestine, adherent, top dose 20 µM)”: the AUC worked out at 0.967 and the IC50 is above 20 µM.

In the case of “SW872 (soft tissue, adherent, top dose 20 µM)”, the AUC is 0.989 and the IC50 was above 20 µM.

With “SW900 (lung squamous cell carcinoma, adherent, top dose 20 µM)”, the AUC is 0.969 and the IC50 was above 20 µM.

“SW948 (large intestine, adherent, top dose 20 µM)”: the AUC came out at 0.981 and the concentration for half-maximal inhibition (IC50) is above 20 µM.

As for “SW954 (urogenital system, adherent, top dose 20 µM)”, the AUC came to 0.956 and the IC50 is above 20 µM.

In the case of “SW962 (urogenital system, adherent, top dose 20 µM)”, the AUC was 0.97 and the IC50 is above 20 µM.

For “SW982 (soft tissue, adherent, top dose 20 µM)”, the AUC is 0.983 and the IC50 is above 20 µM.

Regarding “SW1088 (glioma, adherent, top dose 20 µM)”, the AUC was 0.975 and the IC50 was above 20 µM.

In the case of “SW1116 (large intestine, adherent, top dose 20 µM)”, the AUC worked out at 0.983 and the IC50 is above 20 µM.

With “SW1271 (small cell lung carcinoma, adherent, top dose 20 µM)”, the AUC was 0.966 and the IC50 was above 20 µM.

As for “SW1417 (large intestine, adherent, top dose 20 µM)”, the AUC was 0.98 and the concentration for half-maximal inhibition (IC50) was above 20 µM.

For the cell line “SW1463 (large intestine, adherent, top dose 20 µM)”, the AUC stood at 0.976 and the IC50 is above 20 µM.

Turning to “SW1573 (lung adenocarcinoma, adherent, top dose 20 µM)”, the AUC amounted to 0.981 and the IC50 is above 20 µM.

In the case of “SW1710 (bladder, adherent, top dose 20 µM)”, the AUC stood at 0.984 and the IC50 was above 20 µM.

With “SW1783 (glioma, adherent, top dose 20 µM)”, the AUC is 0.99 and the IC50 is above 20 µM.

On to “SW1990 (pancreas, adherent, top dose 10.24 µM)”, for which the AUC amounted to 0.983 and the IC50 was above 10.2 µM.

As to “Saos-2 (osteosarcoma, adherent, top dose 20 µM)”, the AUC is 0.981 and the 50% inhibitory concentration (IC50) is above 20 µM.

In the case of SiHa (cervix, adherent, top dose 20 µM), the AUC came to 0.987 and the IC50 was above 20 µM.

T47D (breast, adherent, top dose 20 µM): the AUC is 0.95 and the IC50 is above 20 µM.

Take “T84 (large intestine, adherent, top dose 20 µM)”: the AUC turned out to be 0.984 and the IC50 is above 20 µM.

For T98G (glioma, adherent, top dose 20 µM), the AUC turned out to be 0.984 and the IC50 is above 20 µM.

Turning to “T-T (oesophagus, adherent, top dose 20 µM)”, the AUC came out at 0.986 and the IC50 was above 20 µM.

Take “TALL-1 (T-cell lymphoblastic leukaemia, suspension, top dose 20 µM)”: the AUC turned out to be 0.988 and the 50% inhibitory concentration (IC50) was above 20 µM.

For the cell line “TC-71 (Ewing sarcoma, adherent, top dose 20 µM)”, the AUC came out at 0.988 and the 50% inhibitory concentration (IC50) was above 20 µM.

In the case of “TE-1 (oesophagus, adherent, top dose 20 µM)”, the AUC turned out to be 0.981 and the IC50 is above 20 µM.
